Reference: PubChem BioAssay AID434955 (Southern Research Specialized Biocontainment Screening …, 2010)
The other results are listed elsewhere or left out. Further columns of the screen follow, without active or inactive calls. Most of these compounds were active or inconclusive in the main read-out, so they are no random draw.

Assay: beta-lactam sensitization of Mtb H37Rv, H37Rv (AID 434955);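 further: growth measured after seven days incubation then overnight dye step; 0% = bacteria only wells and 100% = bacteria with antibiotic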
Details: M. tuberculosis H37Rv growth with meropenem, percent inhibition; measured here: primary screen without meropenem; at 25 µM

Compound	inhibition
O=C1N=C(N2CCCC2)S/C1=C\c1cccc(Br)c1	32.9%
COc1cc([N+](=O)[O-])c(C(=O)N2CCOCC2)c([N+](=O)[O-])c1	-6.55%
Cc1ccc2[nH]c(O)c(N=Nc3nc4ccccc4s3)c2c1	11.1%
CCN(CC)c1ccc(C=N/C(C#N)=C(\N)C#N)cc1	9.73%
COCCCn1c(SCC(=O)NC2CCCC2)nnc1-c1ccco1	0.98%
CC(C)CC(NC(=O)C1CCC(C)CC1)C(=O)N1CCN(c2ccccn2)CC1 (configuration not stated)	-3.09%
COc1ccc2c(c1)CCc1c(C(=O)Nc3ccn(Cc4ccc(C)cc4)n3)noc1-2	6.29%
O=C(Cn1c(=O)sc2ccccc21)Nc1ccc(S(=O)(=O)N2CCCC2)cc1	3.41%
COC(=O)c1ccc(C)c(NC(=O)c2ccc(Cn3cc([N+](=O)[O-])cn3)o2)c1	0.09%
Cc1ccc(/C=C(\NC(=O)c2ccccc2)C(=O)NCCN2CCOCC2)o1	-5.9%
CCC(C)N1CCC(Oc2ccc(C(=O)NCc3ccccn3)cc2)CC1 (configuration not stated)	-0.98%
Cc1ccc2nc(NCCCO)[nH]c2c1	1.38%
CN(CC(=O)NCC1CCCO1)S(=O)(=O)c1ccc(Br)cc1 (configuration not stated)	-20.9%
Cc1ccc(C)c(SCC(=O)OCC(=O)N2CC(C)OC(C)C2)c1 (configuration not stated)	-0.59%
Cc1c(NC(=S)NC(=O)CSc2ccc(Cl)cc2)cccc1C(=O)O	-5.52%
Cc1ccc(OCc2cc(C(=O)N(C)CC3CCOCC3)no2)cc1C	3.92%
O=C(C1Cc2ccccc2CN1S(=O)(=O)c1ccc(F)cc1)N1CCCCCC1 (configuration not stated)	1.25%
COc1cccc(Nc2ccc(Nc3cccc(OC)c3)nn2)c1	15.7%
CC(C)Oc1ccc(CNC(=O)CCC(=O)N2CC(C)Sc3ccccc32)cc1 (configuration not stated)	-4.94%
COc1cc(/C=N/NC(=O)C(=O)N2CCCCCC2)ccc1O	-5.14%
CCn1c(COc2ccccc2C)nnc1SCC(=O)N1CCC(C)CC1	-4.67%
O=C(NC1(C(=O)NC2CCCCC2)CCCCC1)c1ccccn1	8.84%
Cn1c(O)c(/C=C2/C=CC=N2)c(=O)[nH]c1=O	17.3%
N#Cc1c(N)nc2c(c1-c1ccncc1)CCCCC2	11%
O=C(NCc1ccc2c(c1)OCO2)c1ccc(-n2cnnn2)cc1	1.25%
COc1ccccc1OCC(=O)NCC1CCCN(Cc2cnn(C(C)C)c2)C1 (configuration not stated)	9.02%

Compound	inhibition
C/C=C/Cn1c(Br)nc2c1c(=O)[nH]c(=O)n2C	-8.89%
CCOC(=O)c1c(NC(=O)CSc2ncn[nH]2)sc(C(=O)NC)c1C	3.85%
COCCN1C(=O)C(=O)/C(=C(/O)c2ccc(S(=O)(=O)N3CCCCC3)cc2)C1c1ccc(OC)c(OC)c1 (configuration not stated)	-6.65%
O=C(c1cc2ccccc2o1)N1CCN(S(=O)(=O)c2ccc(Cl)s2)CC1	96.3%
C/C(CC(=O)Nc1c(C)cc(C)cc1C)=N\NC(=O)c1cnccn1	36%
O=S(=O)(Oc1ccccc1C(=S)N1CCOCC1)c1ccc(Cl)cc1	1.73%
Cc1cc(NC(=O)C2C3C=CC(C3)C2C(=O)O)no1 (configuration not stated)	1.96%
O=C(Nc1cccc(S(=O)(=O)NCc2ccco2)c1)c1cc(-c2ccc(F)cc2)nc2ccccc12	27.7%
CCc1nnc(NC(=O)CSc2nnc(-c3ccco3)n2C)s1	-9.08%
COC1CCCN(Cc2c(C(=O)N3CCN(C4CCCCC4)CC3)nc3ccccn23)C1 (configuration not stated)	5.2%
Cc1cc(C(=O)NC2CC(C)(C)Cc3c2cnn3-c2cccc(F)c2)nn1C (configuration not stated)	-2.55%
COc1ccc(C(=O)Nc2nnc(C3=COCCO3)o2)cc1	90.6%
O=C(O)c1ccc(Cl)c(NC(=O)C2CCCN2S(=O)(=O)c2cccc3nsnc23)c1 (configuration not stated)	-2.45%
Cn1cc([N+](=O)[O-])c(C(=O)NC2CCCCCCC2)n1	8.92%
O=C(C1CCC(=O)N(C2CC2)C1)N1CCC(Oc2ccccc2F)CC1 (configuration not stated)	10.2%
CC(C)C(=O)Nc1ccc(NC(=S)NC(=O)c2ccccc2F)cc1	-4.04%
O=C(Nc1ccccc1)Nc1csc2ccccc12	2.4%
COc1ccc(-c2nnc(NC(=O)c3ccc(S(=O)(=O)N(C)CC4CCCO4)cc3)o2)c(OC)c1 (configuration not stated)	42.3%
COC(=O)c1cccc(NC(=O)CSc2nnc(C)n2Cc2ccccc2)c1	0.33%
CCN1CCN(c2nc(-c3ccccc3Cl)nc3ccccc23)CC1	-8.32%
O=C(c1ccc2[nH]c(=O)c(=O)[nH]c2c1)N1CCc2ccccc21	5.4%
Nc1nc(SCc2nc(-c3ccccc3)no2)[nH]c(=O)c1-c1ccccc1	7.23%
O=S(=O)(c1ccc(Br)cc1)c1nc(-c2ccccc2)oc1NCCN1CCOCC1	6.21%
COc1ccc(N2C(=O)NC(NS(=O)(=O)c3ccccc3)(C(F)(F)F)C2=O)cc1 (configuration not stated)	-5.61%
C#C[C@]1(O)CCC2C3CCC4=C/C(=N/OCC(=O)NC(C)C(=O)NC(CCSC)C(=O)O)CC[C@]4(C)C3CC[C@@]21C (some centres not stated)	5.59%
CC1CC2(CCCCC2)Nc2ccc3ccccc3c21 (configuration not stated)	23.8%
